Results taken from PMC6919601, “Identification of Plasmodium dipeptidyl aminopeptidase allosteric inhibitors by high throughput screening” (PLoS ONE, 2019).
Out of some 110,000 compounds screened, about 230 (0.21%) showed an effect of 50% or more. The list shows a part of the results.

target: DPAP1 (Plasmodium falciparum, UniProt Q8IIJ9); experiment: primary screen, percent inhibition; read by cleavage of a fluorogenic dipeptide substrate; higher = more effect of the substance; design: species or system P. falciparum D10 trophozoite lysates; single well
Sequence (Q8IIJ9 whole entry, looked up): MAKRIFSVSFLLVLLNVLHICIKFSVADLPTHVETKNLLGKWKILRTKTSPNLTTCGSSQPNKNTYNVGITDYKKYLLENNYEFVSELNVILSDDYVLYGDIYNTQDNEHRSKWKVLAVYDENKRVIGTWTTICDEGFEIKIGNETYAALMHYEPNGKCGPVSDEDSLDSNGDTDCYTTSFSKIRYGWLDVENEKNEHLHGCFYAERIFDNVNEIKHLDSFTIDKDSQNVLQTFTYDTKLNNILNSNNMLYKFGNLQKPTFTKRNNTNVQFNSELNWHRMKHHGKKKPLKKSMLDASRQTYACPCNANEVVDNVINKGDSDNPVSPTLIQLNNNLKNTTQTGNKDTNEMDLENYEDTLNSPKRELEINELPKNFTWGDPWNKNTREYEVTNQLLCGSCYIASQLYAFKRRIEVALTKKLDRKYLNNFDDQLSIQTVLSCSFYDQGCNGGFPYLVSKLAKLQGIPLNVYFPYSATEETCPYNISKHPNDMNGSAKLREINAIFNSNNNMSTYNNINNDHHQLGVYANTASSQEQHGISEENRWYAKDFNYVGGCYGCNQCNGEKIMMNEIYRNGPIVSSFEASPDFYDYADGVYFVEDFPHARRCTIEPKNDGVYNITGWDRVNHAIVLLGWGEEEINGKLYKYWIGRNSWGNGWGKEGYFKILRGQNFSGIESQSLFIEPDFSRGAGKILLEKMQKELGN
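Note: 30 min substrate incubation versus DMSO and 10 µM JCP410 controls.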

Nc1nc(N)nc(-c2cccc(-c3nc(N)nc(N)n3)c2)n1 was tested. Which “% Inhibition @ 10 uM” value did it give?
Its value is -9.59%.

With CC1=C(C(=O)Nc2cc(C)ccn2)C(c2ccccc2C)C2=C(O)CC(C)(C)CC2=N1 (centres unmarked) as the molecule, how does the “% Inhibition @ 10 uM” value read?
The value was 3.05%.

How did the “% Inhibition @ 10 uM” value turn out when CC(=O)Nc1ccc(C2Nc3ccc(C)cc3-c3cc(C)nn32)cc1 (centres unmarked) was run?
The value was -0.116%.

How did the “% Inhibition @ 10 uM” value turn out when C=CC1CN2CCC1CC2C(=O)c1ccnc2ccccc12 (centres unmarked) was run?
Its value is -6.39%.

For O=C(O)CCCNS(=O)(=O)c1ccc(Cl)cc1, which “% Inhibition @ 10 uM” value is on record?
Its value is -6.29%.

How did the “% Inhibition @ 10 uM” value turn out when COc1cccc(Cn2nnc3c(O)nc(C4CCN(C(=O)c5ccccc5)CC4)nc32)c1 was run?
The value was 0.347%.

Which “% Inhibition @ 10 uM” value does the source give for Cc1ccccc1OCC(=O)NC1CCCCC1NC(=O)COc1ccccc1C (centres unmarked) here?
The value was 2.42%.

CCCNCC(=O)NC12CC3CC(CC(C3)C1)C2 was tested. Which “% Inhibition @ 10 uM” value did it give?
Its value is -2.48%.

Which “% Inhibition @ 10 uM” value does the source give for CCCNC(=O)CCCN1C(=O)CSc2nc(C)cc(C)c21 here?
Its value is -2.37%.

COc1ccc(-c2sc(C(=O)O)cc2CC(=O)O)cc1 was tested. Which “% Inhibition @ 10 uM” value did it give?
The value was 3.32%.

O=C(CN1CCN(c2ccc([N+](=O)[O-])cc2)CC1)N1CCOCC1 was tested. Which “% Inhibition @ 10 uM” value did it give?
The value was -4.8%.

Which “% Inhibition @ 10 uM” value does the source give for CCN(CC)CC(C)CNC(=O)CSc1nc2nc(C)c(Cc3ccc(C)cc3)c(C)n2n1 (centres unmarked) here?
Its value is 2.17%.

With CCCCCc1ccc(-c2ccc(C(=N)NO)cc2)cc1 as the molecule, how does the “% Inhibition @ 10 uM” value read?
The value was 7.59%.

Which “% Inhibition @ 10 uM” value does the source give for COc1ccc(CNC(=O)C2CCC(Cn3c(=O)[nH]c4ccsc4c3=O)CC2)cc1 (centres unmarked) here?
Its value is -3.27%.

With CCOC(=O)N1CCN(C(=O)CCCCn2c(=S)[nH]c3c([nH]c4ccc(OC)cc43)c2=O)CC1 as the molecule, how does the “% Inhibition @ 10 uM” value read?
Its value is 2.74%.

How did the “% Inhibition @ 10 uM” value turn out when O=c1sc2ccccc2n1CN1CCCC1 was run?
Its value is -4.91%.

How did the “% Inhibition @ 10 uM” value turn out when Cc1cnc(CNC(=O)Nc2ccc(C(=O)NC(CC(C)C)C(=O)NCC#N)cc2)cn1 (centres unmarked) was run?
The value was -14.9%.

Cc1ccccc1CN(CCCN(C)C)CCCN(C)C was tested. Which “% Inhibition @ 10 uM” value did it give?
Its value is 1.08%.

For CC(=O)Nc1ccc(OCC(O)CN2CCN(c3cccc(C(F)(F)F)c3)CC2)cc1 (centres unmarked), which “% Inhibition @ 10 uM” value is on record?
The value was -0.884%.

Which “% Inhibition @ 10 uM” value does the source give for Cc1cc2n(n1)SC(Nc1cccc3ccccc13)N2 (centres unmarked) here?
The value was 0.0451%.

Which “% Inhibition @ 10 uM” value does the source give for O=C1CC(N2CCN(c3ccccc3Cl)CC2)C(=O)N1c1ccccc1 (centres unmarked) here?
The value was 3.27%.

COc1ccc(Br)cc1/C=C1\C(=O)NC(=O)N(c2ccc(C)cc2)C1=O was tested. Which “% Inhibition @ 10 uM” value did it give?
The value was -2.18%.

COCc1cc(C)nc2sc3c(c12)NC(C)n1c-3nc2ccccc21 (centres unmarked) was tested. Which “% Inhibition @ 10 uM” value did it give?
The value was 2.37%.

With CCOc1ccc(OCCSc2nc3ccccc3s2)cc1 as the molecule, how does the “% Inhibition @ 10 uM” value read?
The value was -3.92%.

Cc1cc(C(=O)C(=O)NCc2ccccc2)c(C)n1-c1cccc(Cl)c1 was tested. Which “% Inhibition @ 10 uM” value did it give?
Its value is -4.68%.

COc1ccc(-c2c(-c3ccc(O)cc3O)n[nH]c2C)cc1OC was tested. Which “% Inhibition @ 10 uM” value did it give?
The value was 2.31%.

CC1CCC(NS(=O)(=O)c2ccc(-c3cc(C(F)(F)F)no3)s2)CC1 (centres unmarked) was tested. Which “% Inhibition @ 10 uM” value did it give?
The value was 8.44%.

Which “% Inhibition @ 10 uM” value does the source give for COc1ccc(N2CCN(Cc3cccc(Cl)c3)CC2)cc1 here?
Its value is -4.61%.

How did the “% Inhibition @ 10 uM” value turn out when CCOc1ccc2oc(=O)cc(CN(C)CCC#N)c2c1 was run?
The value was 0.00706%.

How did the “% Inhibition @ 10 uM” value turn out when CC(C(=O)N1CCN(c2ccccc2F)CC1)N1C(=O)c2ccccc2C1=O (centres unmarked) was run?
Its value is 0.727%.

CCCOc1ccc(C(O)(CCC)CCN2CCCCC2)cc1 (centres unmarked) was tested. Which “% Inhibition @ 10 uM” value did it give?
Its value is 16.4%.

For O=C(O)c1cnn2c(C(F)F)cc(-c3ccc(F)cc3)nc12, which “% Inhibition @ 10 uM” value is on record?
The value was -3.53%.

How did the “% Inhibition @ 10 uM” value turn out when COc1ccccc1/C=C1/N=C(SCC(=O)Nc2cc(C)on2)N(c2ccccc2)C1=O was run?
The value was 1.36%.

COc1cc(CNc2nccs2)ccc1OCC(=O)NC1CCCCC1 was tested. Which “% Inhibition @ 10 uM” value did it give?
Its value is -3.25%.

Cc1ccc(CNc2ccc3c(c2)CCC3)o1 was tested. Which “% Inhibition @ 10 uM” value did it give?
The value was -0.631%.

How did the “% Inhibition @ 10 uM” value turn out when COc1ccc(C(=O)OC2=C(c3ccccc3)C(=O)c3ccccc3C2=O)cc1 was run?
Its value is -3.63%.

How did the “% Inhibition @ 10 uM” value turn out when O=C(CCCn1nc(-c2ccccc2)c2ccccc21)NCc1cccs1 was run?
Its value is -3.08%.

With O=C1NC(=O)/C(=C\c2ccc(OCc3ccccc3Cl)cc2)S1 as the molecule, how does the “% Inhibition @ 10 uM” value read?
Its value is -2.09%.

How did the “% Inhibition @ 10 uM” value turn out when c1ccc2c(CNC3C4CC5CC(C4)CC3C5)c[nH]c2c1 (centres unmarked) was run?
Its value is -2.91%.

How did the “% Inhibition @ 10 uM” value turn out when O=[N+]([O-])c1c(NC2CCCCC2)ccc2nonc12 was run?
The value was 0.708%.

With CC(C)C[C@H](Nc1nc(-c2cccnc2)cs1)C(=O)NCC#N as the molecule, how does the “% Inhibition @ 10 uM” value read?
Its value is -1.41%.

For c1ccc(-c2cc3c4cccn4ccn3c2)cc1, which “% Inhibition @ 10 uM” value is on record?
Its value is -1.86%.

Cc1nnc(NCCc2ccccc2)c2c1nnn2Cc1ccc(F)cc1 was tested. Which “% Inhibition @ 10 uM” value did it give?
Its value is -1.71%.

For CC(C)NC(=O)/C(=C/c1cn(S(=O)(=O)N(C)C)c2ccccc12)NC(=O)c1ccccc1F, which “% Inhibition @ 10 uM” value is on record?
Its value is 1.64%.

How did the “% Inhibition @ 10 uM” value turn out when Cc1ccc2c(c1)C(=O)OC(C(=O)Nc1nc3c(s1)CCCC3)C2 (centres unmarked) was run?
The value was 0.221%.

O=c1oc(-c2ccco2)nc2sc3c(c12)CCCCC3 was tested. Which “% Inhibition @ 10 uM” value did it give?
Its value is -1.5%.

With CCc1c(-c2ccccc2)n(-c2cccc(C)c2)c2nc3c(c(=O)n(C)c(=O)n3C)n12 as the molecule, how does the “% Inhibition @ 10 uM” value read?
The value was 4.32%.

Which “% Inhibition @ 10 uM” value does the source give for Cc1cc(C)n2nc3nc(N4CCCCC4)nc(-c4ccco4)c3c2n1 here?
The value was -6.5%.

Which “% Inhibition @ 10 uM” value does the source give for Cc1ccc(S(=O)(=O)NC(=O)CSC#N)cc1 here?
Its value is -6.2%.

For COc1ccc(OC)c(NC(=O)CN(c2cccc(Cl)c2C)S(=O)(=O)c2ccccc2)c1, which “% Inhibition @ 10 uM” value is on record?
Its value is -2.83%.
